Assay results reported in the RNAGym collection of RNA variant scans (doi:10.7554/elife.90254).
Read counts are not given, so values of variants with three or more changes are uncertain.

B1: OR4K15 (parent)
chain: GUUAACGGUCAUAGGCCAUGGAAACUAGGAGCACCAUUUCGCUGCCAGUGAAGAAAUGAACAAAGAAAAUCUGGGCCAGGCAGGCAUCAAAAGAAAUAGUCUUGCGCUCAACCAGAAAGUCUGUAAUCAUUUUAAGGGUA

Variants of: B1
Assay: self-cleavage, relative activity (ratio to wild type); higher = more cleavage; in vitro, sequencing; the parent is a self-cleaving ribozyme
Work on GCUAACGGUCAUAGGCCAUGGAAACUAGGAGCACCAUUUCGCUGCCAGUGAAGAAAUGAACAAAGAAAAUCUGGGCCAGGCAGGCAUCAAAAGGAAUAGUCUUGCGCUCAGCCAGAAAGUCUGUAAUCAUUUUAAGGGUA [U2C A94G A111G] yielded a self-cleavage of 0.02.
Variant GUUAACGGUCAUAGGCCAUGGAAACUAGGAGCACCUUUUCGCUGCCAGUGAAGAAGUGAACAAAGAAAAUCUGGGCCAGGCAGGCAUCAAAAGAAAUAGUCUUGCGCUCAACCAGGAAGUCUGUAGUCAUUUUAAGGGUA [A36U A56G A116G A126G] has a self-cleavage of 0.74.
GUUAACGGUUAUAGGCCAUGGUAACUAGGAGCACCAUUUCGCUGCCAGUGAGGAAACGAACAAAGAAAAUCUGGGCCAGGCUGGCAUCAAAAGAAGCAGUCUUGCGCUCAACCAGAAAGCCUGUAAUCAUUUUAAGGGUA [C10U A22U A52G U57C A82U A96G U97C U120C] showed a self-cleavage of 0.02.
GUUAUCGGUCAUAGGCCAUGGAAACUAGGAGCACCAUUCCGCUGCCGGUGAAGGAAUGAACAAAGAAAAUCUGGGCCAGGCAGGCAUCAAAAGAAAUAGUCUUGCGCUCAACCAGAAAGUCUGUAAUCAUUUUAAGGGUA [A5U U39C A47G A54G] showed a self-cleavage of 0.44.
Variant GUUAACGGACAUAUGCCAUGGAAACUAGGAGCACCAUUUCGCUGCCAGCGAAGAAAUGAACAAAGAAAAUCUGGGCCAGGCAGGCAUCAAAAGAAAUAGCCUUGCGCUCAACCAGAAAGUCUGUAAUCAUUUUAAGGGUA [U9A G14U U49C U100C] has a self-cleavage of 1.27.
GUUAACGGUCAUAGGCCAUGGAAACUAGGAGCACCAUUUCGCUGCCAGUGAAGAAGUGAACAAAGAAAGCCUGGGCCAGGCAGGCAUCAAAAGAAAUAGUCUUGCGCUCAACCAGAAAGUCUGUAAUCAUUUUAAGGGUA [A56G A69G U70C] showed a self-cleavage of 0.16.
Work on GUUAACGGUCAUGGGCCAUGGAAACUAGUAGCACCAUUUCGCUGCCAGUGAAGAAAUGAACAAAGAAAAUCUGGGCCAGGCAGGCAUCAAAAGAAAUAGUCUUGCGCUCAACCAGAAAGCCUGUAAUCAUUUUAAGGGUA [A13G G29U U120C] yielded a self-cleavage of 1.49.
Variant GUUAACGGUCAUAGGCCAUGGAAGCUAGGAGCACCAUUUCGCUGCCAGUGAAUAGAUGAACAAAGAAAAUCUGGGCCAGGCAGGCAUCAAGAGAAAUAGUCUUGCGCUCAACCAGAAAGUCUGUAAUCAUUUUAAGGGUA [A24G G53U A55G A91G] has a self-cleavage of 0.84.
Variant GUUAGCGGUCAUUGGCCAUGGAAACUAGGAGCACCAUUUCGCUGCCAGUGAAGGAAUGAACAAAGAAAAUCUGGGCCAGGCAGGCAUCAAAAGAAAUAGUCUUGUGCUCAACCAGAAAGUCUGUAAUCAUUUUAAGGGUA [A5G A13U A54G C105U] has a self-cleavage of 0.24.
In the case of GUUAUCGGUCAUAGGCCUUGGAAACUAGGAGCACCAUUUCGCUGCCAGUGAAGAAAUGAACUAGGAAAAUCUGGGCCAGGCAGGCAUCAAAAGAAAUAGUCUUGCGCUCAACCAGAAAGUCUGUAAUCAUUUUUAGGGUA [A5U A18U A62U A64G A134U], the self-cleavage is reported as 0.64.
GUUAACGGUCGUAGGCCAUGGAAACUAGGAGCACCAUUUCGCUGCCAGUGAAGAAGUGGACAAAGAAAAUCUGGGCCAGGCAGGCAUCAAAAGAAAUAGUCUUGCGCUCAACCAGAAAGUCUGUAAUCAUUUUAAGGGUA [A11G A56G A59G] showed a self-cleavage of 1.49.
GUUAACGGUCAUAGGCCAUGGAGACUAGGAGCACCAUUUCGCUGCCAGUGAAGAAAUGAACAAAGAAAACCUGGGCCAGGCAGGCAUCAAAAGAGAUAGUCUUGCGCUCAACCAGAAAGUCUGUAAUCAUUCUAAGGGUA [A23G U70C A95G U132C] showed a self-cleavage of 1.3.
In the case of GCUAACGGUCAUAGGCCAUGGAAGCUAGGAGCACCAUUUCGCUGCCAGUGAAGAAAUGAACAAAGAAAAUCUGGGCCAGGCAGGCAUCAAGAGAAAUAGUCUUGCGCUCAACCAGAAAGUCUGUAAUCAUUUUAAGGGUA [U2C A24G A91G], the self-cleavage is reported as 0.86.
Work on GUUAACGGUCAUAGGCCAUGGAAACUAGGAGCACCAACUCGCUGCCAGUGAAGAAACGAACAAAGAAAAUCUGGGCCAGGCAGGCAUCAAGAGAAAUAGUCUCGCGCUCAACCAGAAAGUCUGUAAUCAUUUUAAGGGUA [U37A U38C U57C A91G U103C] yielded a self-cleavage of 0.42.
Work on GUUAACGGUCAUAGGCCAUGGAAACUAGGGGCACCAUUUCGCUGCCGGUGAAGAAAUGAACAAAGAAAAUCUGGGCCUGGCAGGCAUCAAAAGAAAUAGUCUUGCGCUCAACCAGAAAGUCUGUAAUCAUUCUAAGGGUA [A30G A47G A78U U132C] yielded a self-cleavage of 0.47.
In the case of GUUAACGGUCAUAGGCCAUGGAAACCAGGAGCACCAUUUCGCUGCCAGCGAAGAAAUGAACAAUGAAAAUCUGGGCCAGGCAGGCAUCAAAAGAAGUAGUCUUGCGCUCAACCAGAAAGUCUGUAAUCAUUUUAAGGGUA [U26C U49C A64U A96G], the self-cleavage is reported as 1.06.
In the case of GUUAACGGUCAUAGGCCAUGGAAACUAGGAGCACCAUUUCGCUGCCUGUGAAGAAAUGAACAAAGAAAGUCUGGGCCAGGCAGGCAUCAAAAGAAAUAGUCUUGCGCUCAACCAGAGAGUCUGUAAUCAUUUUAAGGGUA [A47U A69G A117G], the self-cleavage is reported as 0.59.
Work on GUUAACGGCCAUAGGCCAUGGAAACUAGGAGCACCAUUUCGCUGCCAGUGAGGAAAUGGACAAAGAAAAUCUGGGCCAGGCAGGCAUCAAAAGAGAUAGUCUAGCGCUCAACCAGAAAGUCUGUAAUCAUUUUAAGGGUA [U9C A52G A59G A95G U103A] yielded a self-cleavage of 1.51.
GUUUACGGUCAUAGGCCAUGGAAACUAGGAGCACCAUUUCGCUGCCAGUGAUGAUAUGAACAAAGAAAAUCUGGGCCAGGCAGGCAUCAAAAGAAAUAGUCUUGCGCUCAACCAGAAAGUCUGUAAUCAUUUUAAGGGUA [A4U A52U A55U] gave a self-cleavage of 0.53.
With GUUAACGGUCAUAGGCCAUGGAAACUAGGAGCACCAUUUCGCAGCCAGCGAAGAAAUGAACAAAGAAAAUCUGGGCCAGGCAGGCAUCAAAAGAAAUAGUCUUGCGCUCAACCAGAAAGUCUGUAAUCAUCUUAAGGGUA [U43A U49C U131C] the self-cleavage was 1.7.
GUUUACGGUCAUAGGCCAUGGAAACUAGGAGCUCCAUUUCGCUGCCAGUGAAGAAAUGAACAAAGAAAAUCUGGGCCAGGCAGGCAUCAAAAGAAAUAGUCUUGCGCUCAACCAGAAAGUCUGUAGUCAUUUUAAGGGUA [A4U A33U A126G] showed a self-cleavage of 1.34.
